The whole screen tested about 39,000 compounds, of which about 220 (0.56%) showed activity. The list shows a part of the results.

16 compounds from the supplement of paper PMC9446081 can be followed below.
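Further: static incubation at 37 °C against the wild-type strain, values averaged over two biological replicates.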

This test has as its system Escherichia coli K-12 BW25113. The test is described as follows: relative growth (OD600 normalised to plate interquartile mean) (fraction); higher = less growth inhibition, active = 0.2 or less. Particulars: 50 µM; LB; incubation time: overnight (16-24 h).
Consider `C[C@H]1CN([C@@H](C)CO)C(=O)c2cc(NC(=O)Cn3cnnn3)ccc2O[C@@H]1CN(C)S(=O)(=O)c1ccccc1`, for which the relative growth was inactive: 1.01.

Consider `CC(=O)O[C@@H]1[C@H](OC(C)=O)N(C)C(=O)N1C`, for which the relative growth was inactive: 0.981.

For the compound `O=C(CN1CCOCC1)N[C@@H]1CC[C@@H](CCNC(=O)C2CCC2)O[C@@H]1CO`, the relative growth was inactive: 0.986. As for `C[C@@H]1CCCCO[C@@H](CN(C)Cc2ccccc2)[C@H](C)CN([C@@H](C)CO)C(=O)c2cc(NC(=O)c3ccccc3)ccc2O1`, the figure is inactive: 0.995; as for `COc1ccc(NC(=O)Nc2ccc3c(c2)CC(=O)N([C@@H](C)CO)C[C@H](C)[C@@H](CN(C)Cc2ccc(Cl)c(Cl)c2)O3)cc1`, inactive: 0.989. As for `Cc1ccc(S(=O)(=O)N(C)C[C@H]2Oc3ccc(NS(=O)(=O)c4c(C)noc4C)cc3CC(=O)N([C@@H](C)CO)C[C@@H]2C)cc1`, the figure is inactive: 0.994; as for `C[C@H]1CN([C@@H](C)CO)C(=O)Cc2cc(NC(=O)c3ccncc3)ccc2O[C@H]1CN(C)Cc1ccc(-c2ccccc2)cc1`, inactive: 0.979.

`C[C@@H]1CN([C@@H](C)CO)C(=O)c2cc(NC(=O)c3ccccc3)ccc2O[C@@H](C)CCCCO[C@@H]1CN(C)C(=O)C1CCCCC1`: the relative growth is inactive: 1.02. As for `COc1ccc(S(=O)(=O)Nc2ccc3c(c2)C(=O)N([C@@H](C)CO)C[C@H](C)[C@H](CN(C)C(=O)Nc2ccc(C(F)(F)F)cc2)OCCCC[C@@H](C)O3)cc1`, the figure is inactive: 1.05; as for `C[C@@H]1CCCCO[C@@H](CN(C)C(=O)Nc2ccc(C(F)(F)F)cc2)[C@H](C)CN([C@H](C)CO)C(=O)c2cc(NS(=O)(=O)c3ccc(F)cc3)ccc2O1`, inactive: 1.04; as for `Cc1ccc(S(=O)(=O)N[C@@H]2CC[C@H](CC(=O)N3CCC(Cc4ccccc4)CC3)O[C@H]2CO)cc1`, inactive: 0.986. `C[C@@H]1CN([C@H](C)CO)C(=O)Cc2cc(NS(=O)(=O)c3ccccc3)ccc2O[C@@H]1CN(C)Cc1ccc(Oc2ccccc2)cc1`: the relative growth is inactive: 0.996. For the compound `CCN1C[C@@H]2CN(C(=O)c3ccnn3C)C[C@H]2C1=O`, the relative growth is inactive: 0.978. As for `C=CCC[C@@H](Cc1ccc(F)cc1)C(=O)OC[C@@H](NC(=O)[C@@H](CC=C)CC(=O)N[C@H](CO)Cc1ccccc1)C(C)(C)C`, the figure is inactive: 1.03; as for `COc1cc(-c2cc(=O)c3c(s2)N(c2ccc(OC)c(OC)c2)[C@@H](c2ccc(O)c(OC)c2)CC3=O)ccc1O`, inactive: 1.04; as for `C[C@@H]1CN([C@H](C)CO)C(=O)Cc2cc(NS(=O)(=O)c3cn(C)cn3)ccc2O[C@@H]1CN(C)Cc1ccncc1`, inactive: 1.
